Assay results as given in the BET-seq Pho4 binding data (Le et al. 2018).
Some of the results follow. Values were computed here from the reads of four pooled replicates and scatter widely.

Each sequence was assayed against T1, Pho4 (S. cerevisiae) (UniProt P07270) (assay: relative binding free energy (BET-seq); higher = weaker binding). Conditions: reference: library average.
T1 sequence: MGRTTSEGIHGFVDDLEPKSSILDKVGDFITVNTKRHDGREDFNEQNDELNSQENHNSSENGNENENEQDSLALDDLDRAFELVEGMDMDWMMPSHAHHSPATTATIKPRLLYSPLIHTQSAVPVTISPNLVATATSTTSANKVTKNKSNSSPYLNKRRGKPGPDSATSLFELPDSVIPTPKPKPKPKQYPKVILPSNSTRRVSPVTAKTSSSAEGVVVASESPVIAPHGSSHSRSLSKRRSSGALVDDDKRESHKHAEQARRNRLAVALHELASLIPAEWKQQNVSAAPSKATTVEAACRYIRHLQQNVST
In the case of TGATTCACGTGGATTT, the “relative binding free energy” value is reported as 0.19 kcal/mol. TTGAGCACGTGAGGCG was tested, and the “relative binding free energy” value was 0.28 kcal/mol. With GGTCTCACGTGGAGCG the “relative binding free energy” value was 0.14 kcal/mol. For AATGACACGTGATGAG, the “relative binding free energy” value was 0.11 kcal/mol. For ATCTACACGTGGTTGG, the “relative binding free energy” value was -0.02 kcal/mol. For ATGTGCACGTGGTTGA, the “relative binding free energy” value was -0.09 kcal/mol. TTTTTCACGTGGTGTA was tested, and the “relative binding free energy” value was 0.25 kcal/mol. In the case of TTTGCCACGTGTAGTG, the “relative binding free energy” value is reported as -0.08 kcal/mol. In the case of TTCGTCACGTGAATGT, the “relative binding free energy” value is reported as 0.21 kcal/mol. In the case of TTGTTCACGTGCAGGT, the “relative binding free energy” value is reported as 0.23 kcal/mol. In the case of CGCTTCACGTGTGGGT, the “relative binding free energy” value is reported as 0.13 kcal/mol. TAGGACACGTGTCTGG was tested, and the “relative binding free energy” value was 0.05 kcal/mol. With ATACTCACGTGGGTAT the “relative binding free energy” value was 0.11 kcal/mol. With GGATTCACGTGTGTTG the “relative binding free energy” value was 0.34 kcal/mol. For GGGTGCACGTGGTACG, the “relative binding free energy” value was -0.06 kcal/mol. For ACTTGCACGTGGGGCG, the “relative binding free energy” value was -0.13 kcal/mol. In the case of TTGCTCACGTGGAGCG, the “relative binding free energy” value is reported as 0.26 kcal/mol. With CTAGGCACGTGGTGTT the “relative binding free energy” value was -0.2 kcal/mol. GGTTGCACGTGGCAAG was tested, and the “relative binding free energy” value was 0.09 kcal/mol. For AGTGGCACGTGATATA, the “relative binding free energy” value was 0.05 kcal/mol. With TTGAGCACGTGCGTTG the “relative binding free energy” value was -0.13 kcal/mol. In the case of TAATGCACGTGGCGCT, the “relative binding free energy” value is reported as -0.03 kcal/mol. In the case of GTGTCCACGTGGAAAG, the “relative binding free energy” value is reported as 0.31 kcal/mol. With TTTAGCACGTGGAAGA the “relative binding free energy” value was 0.1 kcal/mol. TTGGTCACGTGAGTCG was tested, and the “relative binding free energy” value was 0.36 kcal/mol. AGAGACACGTGGTGTG was tested, and the “relative binding free energy” value was -0.16 kcal/mol. In the case of TGTGACACGTGTTCTT, the “relative binding free energy” value is reported as -0.02 kcal/mol. TTCCTCACGTGAAGGT was tested, and the “relative binding free energy” value was 0.58 kcal/mol. For TCGTACACGTGTTAGG, the “relative binding free energy” value was 0.03 kcal/mol. For TAGTGCACGTGAAGTA, the “relative binding free energy” value was 0.01 kcal/mol. For ATTTTCACGTGTTCTT, the “relative binding free energy” value was 0.37 kcal/mol. In the case of TGTTCCACGTGAGGTC, the “relative binding free energy” value is reported as 0.4 kcal/mol. For ATGGTCACGTGTGTCT, the “relative binding free energy” value was 0.05 kcal/mol. GTGTACACGTGCGTAT was tested, and the “relative binding free energy” value was -0.04 kcal/mol. TGGTGCACGTGCTGCG was tested, and the “relative binding free energy” value was -0.23 kcal/mol. With GTTTACACGTGGAGTC the “relative binding free energy” value was 0.14 kcal/mol. For TCTGGCACGTGGTTGG, the “relative binding free energy” value was -0.14 kcal/mol. For GTCGCCACGTGGGTGT, the “relative binding free energy” value was -0.28 kcal/mol. For AGTGTCACGTGGTCTG, the “relative binding free energy” value was -0.12 kcal/mol. GTTTCCACGTGGGTTT was tested, and the “relative binding free energy” value was 0.04 kcal/mol. For TGCGGCACGTGTTGTA, the “relative binding free energy” value was -0.04 kcal/mol. For AGGAGCACGTGGACGT, the “relative binding free energy” value was -0.05 kcal/mol. In the case of TGGTGCACGTGCAGTT, the “relative binding free energy” value is reported as 0.07 kcal/mol. For AGCATCACGTGTCGGG, the “relative binding free energy” value was 0.15 kcal/mol. In the case of TCCTTCACGTGGGTTG, the “relative binding free energy” value is reported as 0.17 kcal/mol. For GGTGGCACGTGGCGTA, the “relative binding free energy” value was -0.12 kcal/mol. In the case of AGTCACACGTGAGGTG, the “relative binding free energy” value is reported as 0.13 kcal/mol. In the case of GACGACACGTGTGTGG, the “relative binding free energy” value is reported as 0.04 kcal/mol. In the case of AGGATCACGTGATGGA, the “relative binding free energy” value is reported as 0.29 kcal/mol. GTCTGCACGTGGGTGT was tested, and the “relative binding free energy” value was -0.06 kcal/mol. In the case of ATTGTCACGTGTTCAG, the “relative binding free energy” value is reported as -0.02 kcal/mol. AAATACACGTGTTTTA was tested, and the “relative binding free energy” value was 0.04 kcal/mol. In the case of TTATGCACGTGTAATG, the “relative binding free energy” value is reported as -0.02 kcal/mol. GAAGACACGTGTTTTT was tested, and the “relative binding free energy” value was 0.16 kcal/mol. With AAGCGCACGTGAAGTG the “relative binding free energy” value was 0.2 kcal/mol. In the case of GCTGACACGTGTGAGT, the “relative binding free energy” value is reported as 0.32 kcal/mol. For GAGGCCACGTGGAGGT, the “relative binding free energy” value was -0.08 kcal/mol. In the case of ACGAGCACGTGGAAGG, the “relative binding free energy” value is reported as -0.02 kcal/mol. With TGTGGCACGTGTGTGG the “relative binding free energy” value was -0.05 kcal/mol. CGGGACACGTGTGTTA was tested, and the “relative binding free energy” value was 0.08 kcal/mol. In the case of AATGTCACGTGTTTCG, the “relative binding free energy” value is reported as 0.12 kcal/mol. With AGTAACACGTGAGTGA the “relative binding free energy” value was 0.2 kcal/mol. GGTTCCACGTGTTTAA was tested, and the “relative binding free energy” value was 0.05 kcal/mol. In the case of GAGTACACGTGATGTG, the “relative binding free energy” value is reported as 0.33 kcal/mol. AGGGACACGTGGGAGC was tested, and the “relative binding free energy” value was -0.04 kcal/mol. For GATGACACGTGTGGAT, the “relative binding free energy” value was 0.16 kcal/mol. For TATGACACGTGTGGAG, the “relative binding free energy” value was 0.03 kcal/mol. For AGTTTCACGTGTGGAA, the “relative binding free energy” value was 0.34 kcal/mol. GCGATCACGTGGGGAG was tested, and the “relative binding free energy” value was 0.1 kcal/mol. In the case of TAGAACACGTGGTGCT, the “relative binding free energy” value is reported as -0.06 kcal/mol. For GTATACACGTGGCTGT, the “relative binding free energy” value was -0.13 kcal/mol. With GGGTGCACGTGGTATA the “relative binding free energy” value was -0.08 kcal/mol. In the case of GGATCCACGTGTGTTT, the “relative binding free energy” value is reported as 0.18 kcal/mol. For CAGTTCACGTGTTTTG, the “relative binding free energy” value was 0.29 kcal/mol. In the case of AATTGCACGTGCGTGA, the “relative binding free energy” value is reported as -0.04 kcal/mol. In the case of ATAGGCACGTGTTATA, the “relative binding free energy” value is reported as -0.31 kcal/mol. For GAAGTCACGTGGTATT, the “relative binding free energy” value was 0.13 kcal/mol. In the case of AAAATCACGTGTAGTG, the “relative binding free energy” value is reported as 0.14 kcal/mol. With TGGGTCACGTGCATGA the “relative binding free energy” value was 0.04 kcal/mol. GGGGGCACGTGACTGG was tested, and the “relative binding free energy” value was -0.04 kcal/mol. With TAATACACGTGGTTAA the “relative binding free energy” value was 0 kcal/mol. CCTTGCACGTGTTGGG was tested, and the “relative binding free energy” value was 0.02 kcal/mol. For ATCTTCACGTGTTCGG, the “relative binding free energy” value was 0.27 kcal/mol. For TTTGGCACGTGAATAG, the “relative binding free energy” value was 0.14 kcal/mol. For TTTAACACGTGGTCTA, the “relative binding free energy” value was -0.01 kcal/mol. For GGGGTCACGTGGTCGA, the “relative binding free energy” value was -0.01 kcal/mol. CTGGGCACGTGAGGTT was tested, and the “relative binding free energy” value was 0.07 kcal/mol. GGATTCACGTGACGGG was tested, and the “relative binding free energy” value was 0.55 kcal/mol. With AAGTACACGTGGGTTT the “relative binding free energy” value was -0.01 kcal/mol. For TGGCACACGTGTATTA, the “relative binding free energy” value was 0.11 kcal/mol. In the case of TGGTACACGTGAGATG, the “relative binding free energy” value is reported as 0.28 kcal/mol. With AAATACACGTGTGGCT the “relative binding free energy” value was 0.14 kcal/mol. In the case of ATCTTCACGTGTGTTA, the “relative binding free energy” value is reported as 0.25 kcal/mol. In the case of GTTGGCACGTGGATTC, the “relative binding free energy” value is reported as 0.05 kcal/mol. With GGAGTCACGTGCAAGG the “relative binding free energy” value was 0.14 kcal/mol. With TGTTCCACGTGGGAAT the “relative binding free energy” value was 0.03 kcal/mol. In the case of CAGTGCACGTGTCGTT, the “relative binding free energy” value is reported as 0.03 kcal/mol. For TAAGGCACGTGTGAGG, the “relative binding free energy” value was -0.06 kcal/mol. GGAAGCACGTGGGTCT was tested, and the “relative binding free energy” value was -0.24 kcal/mol. TATTTCACGTGTAGAA was tested, and the “relative binding free energy” value was 0.25 kcal/mol. For AGGGTCACGTGGATGG, the “relative binding free energy” value was 0.14 kcal/mol. For GGCGTCACGTGATTGG, the “relative binding free energy” value was 0.29 kcal/mol. With AGCAGCACGTGTGTGT the “relative binding free energy” value was -0.08 kcal/mol. For GCTTGCACGTGGAGCG, the “relative binding free energy” value was 0.17 kcal/mol. TGGGTCACGTGATGTG was tested, and the “relative binding free energy” value was 0.15 kcal/mol. In the case of GTCAGCACGTGAGAGT, the “relative binding free energy” value is reported as 0.15 kcal/mol. With AGTGTCACGTGGAAGT the “relative binding free energy” value was 0.16 kcal/mol. With ATGGACACGTGAGGAA the “relative binding free energy” value was 0.37 kcal/mol. For GCGGTCACGTGGATTT, the “relative binding free energy” value was 0.26 kcal/mol. GTACGCACGTGGTAGG was tested, and the “relative binding free energy” value was -0.21 kcal/mol. In the case of GAAGACACGTGTGAGG, the “relative binding free energy” value is reported as 0.1 kcal/mol. AATAGCACGTGTGTGT was tested, and the “relative binding free energy” value was -0.2 kcal/mol. GAGCGCACGTGGAGTT was tested, and the “relative binding free energy” value was 0.03 kcal/mol. For TTGAGCACGTGCGCGG, the “relative binding free energy” value was -0.2 kcal/mol. For GAGCACACGTGGGAGT, the “relative binding free energy” value was 0.13 kcal/mol.
